# Laboratory results published in PubChem BioAssay AID1347073 (National Center for Advancing Translational Sciences (NCATS), 2019).
# Out of some 45,000 compounds screened, about 200 (0.44%) were called active. Not shown: some 7% with an inconclusive outcome. Calls come from the whole dose curve; as a rule, active = well fitted activation curve with a large enough effect; inconclusive = small, poorly fitted or top-dose-only effect; inactive = no such curve, though single readings can be large or run the other way. Some of the results follow.
# Test: qHTS of TDP-43 Inhibitors: NCGC Sytravon Library Screen; note: nearly all actives have a fitted effect of over 55% in size; for growth rescue (activation): 0% is about no effect
# Conditions: yeast TDP-43 toxicity rescue, BacTiter-Glo growth, 24 h; series mostly up to 46.1 µM; growth rescue (activation): at the top concentration
# Outline: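 TDP-43-expressing yeast, pregrown in raffinose, seeded at OD600 0.02 in galactose medium with compound for 24 hr at 30 deg C. Growth read by BacTiter-Glo luminescence, so rescue of toxicity appears as activation.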
# Potency is the fitted concentration of half-maximal effect.
SMILES,growth rescue (activation),Potency
Oc1ccccc1-c1nc(/C=C/c2ccc(F)cc2)nn1-c1ccccc1,inactive: 3.14%,
O=C(NCCCCc1ccccc1)c1cc([N+](=O)[O-])cc([N+](=O)[O-])c1,inactive: 21.6%,
CCOc1ccc(S(=O)(=O)N(CC)CC(=O)NCc2cccnc2)cc1C,inactive: -5.45%,
CCN1CC=C2C(C#N)=C(N)C(C#N)(C#N)[C@H](c3ccoc3)[C@H]2C1,inactive: 13.3%,
COc1ccccc1C(=O)NNC(=O)C(=O)NC1CCCCC1,inactive: 28.9%,
COc1ccc(-c2nn3c(-c4ccccc4C)nnc3c3ccccc23)cc1,inactive: 11.6%,
O=C(NNC(=O)C1CCN(Cc2ccc(F)cc2Cl)CC1)Nc1ccc([N+](=O)[O-])cc1,inactive: 9.85%,
C/C(=N\Nc1ccccn1)c1ccc(S(=O)(=O)NCc2ccco2)cc1,inactive: -0.611%,
CC(C)c1nc2sc3c(SCC(=O)NCc4ccco4)ncnc3c2c2c1CCC2,inactive: 11.6%,
CC(NC(=O)c1ccccc1)C(=O)NC1CCCc2ccccc21 (stereo unspecified),inactive: 18.5%,
CCNC(=O)C(Cc1ccccc1)NC(=O)OCc1ccccc1 (stereo unspecified),inactive: 6.87%,
COc1ccc(OCc2nnc(SCC(=O)Nc3cccc(Cl)c3)o2)cc1,inactive: 22.1%,
OCCC1CN(Cc2cccn2-c2cccnc2)CCN1Cc1ccccc1 (stereo unspecified),inactive: 9.53%,
Cc1cc(C)n2c(SCC(=O)NC3CCCC(C)C3C)nnc2n1 (stereo unspecified),inactive: 17.3%,
CO/N=C/NC(=O)NOCc1c(Cl)cccc1Cl,inactive: -20.5%,
CNc1nc(NCc2cccc(OC)c2)c2sccc2n1,inactive: 7.7%,
Cc1ccc(S(=O)(=O)N2CCN(C(=O)CC(C)n3cncn3)CC2)cc1C (stereo unspecified),inactive: 14.6%,
Cc1ccc(S(=O)(=O)CCC(=O)Nc2ccc(F)cc2)cc1,inactive: -15.2%,
Cn1c(-c2ccc3c(c2)OCO3)cnc1NCc1ccccc1Cl,inactive: -7.94%,
Cc1c(NC(=O)CN2CC(C)OC(C)C2)c(=O)n(-c2ccccc2)n1C (stereo unspecified),inactive: -2.22%,
Cc1cccc(Oc2coc3cc(OC(=O)c4cncc(Br)c4)ccc3c2=O)c1,inactive: 4.26%,
O=C(COc1ccc(S(=O)(=O)N2CCOCC2)cc1Cl)NCCN1CCOCC1,inactive: 11.3%,

SMILES,growth rescue (activation),Potency
COc1ccccc1-n1cnc2cc(NCc3cccs3)ccc21,inactive: 29.4%,
COc1ccc(Br)cc1C(=O)NC(=S)Nc1ccc(Cl)c(C(=O)O)c1,inactive: -8.2%,
O=C(Cn1cc(C(F)(F)F)ccc1=O)N1CCCc2ccccc21,inactive: 4.31%,
COc1ccc(/C=N/NC(=O)c2ccn[nH]2)cc1CN1CCOCC1,inactive: -4.55%,
CCCCCCCCNC(=S)NCCN1CCCCC1,inactive: -7.58%,
O=C(CN(c1cccc([N+](=O)[O-])c1)S(=O)(=O)c1ccccc1)NCc1cccnc1,inactive: 13.5%,
Fc1ccc(C2=CC(c3ccco3)n3nnnc3N2)cc1 (stereo unspecified),inactive: 14.6%,
Nc1ccc(N2CCN(c3ccc(F)cc3)CC2)cc1,inactive: -10.2%,
Cc1cccc(NC(=S)NNC(=O)c2ccc(O)cc2O)c1C,inactive: 24.6%,
COc1ccc(C(=O)OCC(=O)NCc2ccccc2)c(OC)c1OC,inactive: 2.79%,
O=C(NC(c1ccccc1)c1ccc2ccccc2n1)C1CCN(CCOc2ccc(Cl)cc2)CC1 (stereo unspecified),inactive: -3.68%,
NC(=O)CN1C(=O)NC(c2ccccc2)(c2ccccc2)C1=O,inactive: -4.82%,
O=C(Nc1ccc(S(=O)(=O)Nc2ncccn2)cc1)c1ccccc1Cl,inactive: 1.47%,
COc1ccc2c(CCNC(=O)c3ccc([N+](=O)[O-])cc3)c[nH]c2c1,inactive: 3.15%,
CSc1ncc(C(=O)Nc2cccc(Cl)c2C)c(C)n1,inactive: 23.5%,
COc1ccc(OCc2nnc(SCC(=O)NNC(=O)c3ccc(C)cc3)n2C)cc1,inactive: -25.4%,
CCOc1ccc(CN(C)C(=O)CNC(=O)C2CCCCC2)cc1,inactive: -4.38%,
O=C1CCCN1C(=O)CSc1ncnc2sccc12,inactive: 25.6%,
O=C(Nc1ccc(Oc2ccccc2)cc1)c1csc([C@@H]2O[C@H](CO)[C@H](O)[C@H](O)[C@H]2O)n1,inactive: 6.69%,
O=C(NCc1ccc(F)cc1)C1CCN(S(=O)(=O)c2cccc3nonc23)CC1,inactive: 7.77%,
COC(=O)c1ccccc1NC(=O)CCCn1nc([N+](=O)[O-])cc1C,inactive: 11.7%,
O=C(O)CC1(CC(=O)N2CCC(C(=O)O)CC2)CCCC1,inactive: 12.1%,

SMILES,growth rescue (activation),Potency
CC12CCC(C(=O)Nc3nc4ccccc4s3)(OC1=O)C2(C)C (stereo unspecified),inactive: 11.5%,
CC(C)(C)c1ccc(Oc2coc3cc(OCC(=O)O)ccc3c2=O)cc1,inactive: 13.7%,
COc1cc(CC(=O)OCC(=O)Nc2cccc([N+](=O)[O-])c2)cc(OC)c1OC,inactive: 9.63%,
O=C(c1ccc(S(=O)(=O)N2CCCC2)cc1)N1CCN(c2cccc(Cl)c2)CC1,inactive: 37.4%,
COC(=O)c1cc(-c2ccc(F)cc2)n(-c2ccccc2)n1,inactive: 29.6%,
O=C(O)c1cc(N2C(=O)C3CCCCC3C2=O)ccc1NCc1cccnc1 (stereo unspecified),inactive: -46.6%,
CCCCN1C(=O)c2ccc(C(=O)Nc3ccc(S(=O)(=O)N(C)C)cc3)cc2C1=O,inactive: 13.3%,
O=S(=O)(c1ccc2ccccc2c1)N1CCN(C(=S)Nc2ccc(F)cc2)CC1,inactive: 19.2%,
COCCN(Cc1cc2cc(C)ccc2n2nnnc12)C(=S)Nc1cccc(C)c1,inactive: -1.02%,
Cc1cccc(OCC(=O)NCC(=O)N/N=C/c2cccnc2)c1,inactive: 0.606%,
CC(=O)c1ccc(NC(=O)C2CCCN(S(=O)(=O)c3cccc4nonc34)C2)cc1 (stereo unspecified),inactive: -2.08%,
C=CCN(CC=C)c1ccc(N2C(=O)C3CCCCC3C2=O)cc1[N+](=O)[O-] (stereo unspecified),inactive: 28.7%,
COc1ccc(NC(=O)CCN2C(=O)c3cccc([N+](=O)[O-])c3C2=O)cc1,inactive: 5.22%,
CCCCC(=O)NNC(=O)N1c2ccccc2Sc2ccccc21,inactive: 16.7%,
COc1ccccc1-c1cnc(C(O)c2ccc(CN3CCCCC3)cc2)[nH]1 (stereo unspecified),inactive: -9.77%,
O=C(NCc1ccc2c(c1)OCO2)C1CCN(S(=O)(=O)c2cccc3nsnc23)CC1,inactive: 14%,
Cc1ccc(NS(=O)(=O)c2ccc3c(c2)oc(=O)n3C)c(C)c1,inactive: 1.6%,
CN(C)C1CCN(C(=O)c2cccc(OC3CCN(S(=O)(=O)N(C)C)CC3)c2)C1 (stereo unspecified),inactive: 18.8%,
CN(C)c1ccc(Nc2nc(N)c3ccccc3n2)cc1,inactive: -75.7%,
CC(=O)Nc1ccc(NC(=S)NC(=O)c2cc3ccccc3o2)cc1,inactive: 12.8%,
NC1=NC(c2cccc(Cl)c2)n2c(nc3ccccc32)N1 (stereo unspecified),inactive: 3.26%,
COc1ccc2c(-c3ccccc3)cc(N3CCOCC3)nc2c1,inactive: -13.7%,

SMILES,growth rescue (activation),Potency
CC(=O)Nc1ccc(NC(=O)COC(=O)c2ccco2)cc1,inactive: 8.46%,
CC(=O)Nc1ccc(Nc2cc(N(C)C)c3nonc3c2[N+](=O)[O-])cc1,inactive: 8.86%,
COCCOC(=O)C1=C(C)NC(C)=C(C(=O)OCCOC)C1/C=C/c1ccccc1OC,inactive: 15.8%,
O=S(=O)(NCc1cccnc1)c1ccc2ccccc2c1,inactive: -9.89%,
COc1cccc(C(=O)OCC(=O)c2c[nH]c3ccccc23)c1O,inactive: 19%,
Cc1[nH]c(SCC(=O)Nc2cc(C(N)=O)cc(C(N)=O)c2)nc1Cc1ccccc1,inactive: -1.33%,
O=C(/C=C/c1ccc([N+](=O)[O-])cc1)NCc1ccco1,inactive: 4.27%,
Nc1ncn(-c2ncc(C(F)(F)F)cc2Cl)n1,inactive: -16.4%,
COCCn1c(-c2ccc(OC(F)(F)C(F)C(F)(F)F)cc2)nc2c1c(=O)[nH]c(=O)n2CC(C)C (stereo unspecified),inactive: 13.7%,
Cc1ccc(CSc2nnc(-c3ccco3)o2)cc1,,active: 12.6 µM
O=C(c1ccco1)N1CCN(Cc2nnc(-c3ccccc3F)o2)CC1,inactive: -8.55%,
O=C(Nc1ccc(S(=O)(=O)N2CCOCC2)cc1)C1CC1,inactive: 8.27%,
Cc1ccc(-c2nc(CN(C)Cc3ccc4nccnc4c3)c(C)o2)s1,inactive: 14.9%,
Cc1ccccc1-n1c(C)nnc1SCC(=O)NNC(=O)c1ccccc1,inactive: 5.23%,
O=C(c1ccccc1)c1c[nH]c(C(=O)C(Cl)(Cl)Cl)c1,inactive: 9.46%,
COc1ccc(-c2nnc(SCC(=O)NC(C)c3ccccc3)o2)cc1OC (stereo unspecified),inactive: 13.4%,
Cc1c(CCOC(=O)c2ccc([N+](=O)[O-])cc2)sc[n+]1CC(=O)c1ccccc1,inactive: 4.24%,
Cc1cc(F)ccc1S(=O)(=O)Nc1ccc(O)c(Sc2ncn[nH]2)c1,inactive: 3.42%,
CC(=O)c1cccc(NC(=O)CCCNC(=O)c2ccc(Cl)cc2)c1,inactive: 6.6%,
COc1ccccc1CC(=O)NC1CCC(C)CC1 (stereo unspecified),inactive: -0.0925%,
COc1cc(C(c2c(C)[nH][nH]c2=O)c2c(C)[nH][nH]c2=O)ccc1OC(=O)c1cccc([N+](=O)[O-])c1,inactive: 4.15%,
O=C(OCC(=O)N1CCCC1)c1cc(F)c(F)cc1Cl,inactive: 3.82%,

SMILES,growth rescue (activation),Potency
C/C(=N\NC(=S)Nc1ccccc1C)C1Cc2ccccc2C(=O)O1 (stereo unspecified),inactive: 2.21%,
CC(=O)C1=C(c2ccccc2)NC(=S)NC1c1cc(Cl)c(OC(C)C)c(Cl)c1 (stereo unspecified),inactive: -13.7%,
CCc1nc2ccc(C(=O)N(C)CCCN(C)C)cn2c1N(CC)CCOC,inactive: 12.4%,
Cc1cc(C)nc(N2CCCC(C(=O)NC3CC3)C2)n1 (stereo unspecified),inactive: 0.966%,
CC(C)COc1ccc(C(=O)OCCN2CCCCC2)cc1,inactive: 6.57%,
COc1ccc(S(=O)(=O)Nc2ccc(S(=O)(=O)Nc3nccs3)cc2)cc1,inactive: -6.77%,
CSCCC(NS(=O)(=O)c1ccc(C)c(C(=O)O)c1)C(=O)O (stereo unspecified),inactive: -3.71%,
Cn1c(=O)c2c(nc(NCc3ccco3)n2Cc2ccccc2Cl)n(C)c1=O,inactive: 13.9%,
Cc1noc(C)c1S(=O)(=O)N1CCN(S(=O)(=O)c2ccccc2C#N)CC1,inactive: 7.32%,
Cc1ccn(S(=O)(=O)c2ccc(N3CCCC3=O)cc2)n1,inactive: -3.79%,
Cc1cc(NCCc2ccc(Cl)cc2)n2ncnc2n1,inactive: 5.04%,
Cc1ccc(N2CC(C(=O)Nc3ccc(S(=O)(=O)N4CCCC4)cc3)CC2=O)cc1C (stereo unspecified),inactive: 0.594%,
CC12CCC(C(=O)O)(c3nc4cc([N+](=O)[O-])ccc4nc31)C2(C)C (stereo unspecified),inactive: 29.4%,
CC(C)NC(=S)NCc1cccnc1,inactive: 10.2%,
O=C(CCN1C(=O)/C(=C\c2ccccc2)SC1=S)Nc1ccc(C(=O)O)cc1,inactive: 10.9%,
NS(=O)(=O)c1ccc(CCNC(=O)COC(=O)CC(c2ccccc2)c2ccccc2)cc1,inactive: -5.11%,
CC(C)C(=O)N1CCN(c2ccc(NC(=O)c3ccco3)cc2Cl)CC1,inactive: 5.11%,
Cc1ccc(Cl)cc1N(CC(=O)NC(C)c1ccccc1)S(C)(=O)=O (stereo unspecified),inactive: 13.3%,
